Experimental data: publication PMC4242493
This is one part of the list. The list includes weakly bound sequences.

Target: MaxL homodimer (UniProt P61244)
Assay: universal protein-binding microarray (PBM)
Details: PBS-based mixture, 10 nM His-tagged protein dimer, 2% milk, 200 ng/uL BSA, 50 ng/uL salmon testes DNA, 0.02% TX-100; detection with Alexa 488 anti-His …; high values mean tight binding; most listed sequences are background and not binding sites; double strand, one strand shown

UniProt P61244, sequence (P61244 whole entry): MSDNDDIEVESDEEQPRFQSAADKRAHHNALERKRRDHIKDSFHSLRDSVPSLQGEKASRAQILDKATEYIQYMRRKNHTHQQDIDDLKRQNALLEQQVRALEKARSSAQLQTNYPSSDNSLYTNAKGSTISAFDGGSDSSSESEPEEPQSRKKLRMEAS

| Sequence | binding signal (normalized occupancy) |
| --- | --- |
| GTGGTGAA | 0.0794 |
| ACTTCAGA | 0.071 |
| AGAAATCT | 0.0721 |
| ATTACACC | 0.0814 |
| GGAACTCA | 0.0728 |
| CGGATGTC | 0.0765 |
| CAACAACC | 0.0724 |
| AACCCGTA | 0.0739 |
| CGACGCAA | 0.0698 |
| TATATTAA | 0.0809 |
| CTAAAGGC | 0.0681 |
| GGCACTGA | 0.0693 |
| GGGTTCAA | 0.076 |
| AGGCCACT | 0.0708 |
| ATCACGAT | 0.0804 |
| CAAAATGC | 0.0757 |
| CCCACATA | 0.0855 |
| ACGCCGCA | 0.0784 |
| CGTAATGC | 0.0794 |
| CCGATTTA | 0.068 |
| CTAAAACA | 0.0782 |
| GCTAAAGC | 0.0687 |
| ATAGGAAC | 0.0762 |
| GGGAGCCA | 0.0735 |
| AACGGACG | 0.0644 |

| Sequence | binding signal (normalized occupancy) |
| --- | --- |
| GTCAGACA | 0.0729 |
| AGAACGGG | 0.0711 |
| ATAGTGAA | 0.0751 |
| CCTTTAAG | 0.0716 |
| ACACGGGA | 0.0922 |
| ACTATCCA | 0.0782 |
| GTGCTATA | 0.0793 |
| AAGACGCC | 0.0703 |
| CGGACCCG | 0.0644 |
| ACAAACTG | 0.071 |
| CGACTGAG | 0.0648 |
| CGTCGGGA | 0.0732 |
| CCATACTA | 0.0852 |
| CGGGAGGA | 0.0705 |
| ATACTGGA | 0.0785 |
| GGCCGGCA | 0.0744 |
| ATCCTCCG | 0.0769 |
| ACCGTGTG | 0.0873 |
| ATTACTCG | 0.0807 |
| TGAAAGCA | 0.0778 |
| AGTGTACC | 0.0756 |
| GTAGCGAA | 0.074 |
| GAACGCGA | 0.0778 |
| GACCCGTC | 0.0672 |
| ACTTCGGG | 0.0726 |

| Sequence | binding signal (normalized occupancy) |
| --- | --- |
| CGCGCACG | 0.0959 |
| ACCAATCG | 0.0812 |
| AACACGCA | 0.0915 |
| AAGCCTGA | 0.0681 |
| ATATACTC | 0.0842 |
| CTGTTGAC | 0.0783 |
| ACCTTATC | 0.0772 |
| CGTCTTCA | 0.0763 |
| CTAAACCC | 0.079 |
| CCAATGAG | 0.0767 |
| ATCCTGCG | 0.0672 |
| GTTCCGCA | 0.0719 |
| AGTTAGGC | 0.0691 |
| CCCCAATA | 0.0808 |
| TAAAGCCA | 0.0762 |
| AAGGGCTG | 0.0651 |
| ATCCGGAC | 0.0735 |
| CCTGCGGA | 0.0692 |
| AACCGCAG | 0.0674 |
| TAGAGGAA | 0.0715 |
| CATGTTGA | 0.0943 |
| GGAGATCA | 0.0755 |
| TGAACTAA | 0.0704 |
| ACACGGGG | 0.0917 |
| GGATACGA | 0.0818 |

| Sequence | binding signal (normalized occupancy) |
| --- | --- |
| CCTGATGA | 0.0802 |
| CTGTTGGC | 0.0725 |
| ACAGCATC | 0.0767 |
| AGGCTATC | 0.0772 |
| GAGAAGAC | 0.0703 |
| AGCCTAGG | 0.0612 |
| TAGTCAAA | 0.0703 |
| CGGACGTC | 0.068 |
| GCAAACTA | 0.0788 |
| CGGGAGAC | 0.07 |
| CACGTTGA | 0.115 |
| GCGCCAGC | 0.0685 |
| AGGGGGGA | 0.0821 |
| AGCAGTTC | 0.0701 |
| AAACGTAG | 0.0771 |
| ACGGCTGC | 0.0671 |
| ATATAGGA | 0.0892 |
| ACCCGTGC | 0.088 |
| CGATACGA | 0.0714 |
| TAACGTCA | 0.0767 |
| CTCAGGGC | 0.0683 |
| CCAGAGAA | 0.0767 |
| AAGCATGC | 0.118 |
| CAGGGTTA | 0.0754 |
| CCGCTAGG | 0.0685 |

| Sequence | binding signal (normalized occupancy) |
| --- | --- |
| GCCTTCCA | 0.0728 |
| AGCCACGC | 0.109 |
| GTGCTTTA | 0.0871 |
| ACTGCAAG | 0.0662 |
| AGCACTGC | 0.0715 |
| AACTGCCC | 0.0722 |
| AATCGAGT | 0.0743 |
| TAAGGGCA | 0.0747 |
| ACTCTCGA | 0.0716 |
| ACAACTCT | 0.0733 |
| AACGCGGG | 0.0715 |
| CCCGAATA | 0.0758 |
| AGGCCTCC | 0.0686 |
| CTAAGTAG | 0.0773 |
| CGCATCAG | 0.0761 |
| AGTCAGGG | 0.0757 |
| AACGGCCG | 0.069 |
| GGCTATCA | 0.0738 |
| CAGATACA | 0.0802 |
| AGTACAAA | 0.0758 |
| ACAGCGAA | 0.0686 |
| ACAAGGGT | 0.0803 |
| ACGGGTTA | 0.0794 |
| TAGGTGCA | 0.0786 |
| AAATGCTG | 0.0762 |

| Sequence | binding signal (normalized occupancy) |
| --- | --- |
| ATTAGGAG | 0.0749 |
| AGAACAGA | 0.0719 |
| CGGCAGGA | 0.0662 |
| AATAGCAT | 0.0903 |
| ACACTTAC | 0.0756 |
| TACACTAA | 0.0779 |
| ATTGTAAA | 0.0758 |
| ACCAAGGT | 0.0688 |
| GTAATGAC | 0.0783 |
| ATTTTTGA | 0.0755 |
| AGCAATGG | 0.0692 |
| CGACACTC | 0.0757 |
| CAACCGCC | 0.0694 |
| AGCCTGCC | 0.0726 |
| CCCGGCAA | 0.0691 |
| CCGGGGAC | 0.0735 |
| AAACACCC | 0.0791 |
| GTCACACA | 0.0866 |
| AATCAACT | 0.074 |
| CTTCTGGC | 0.066 |
| TAACATCA | 0.081 |
| CGAAGGGA | 0.0709 |
| GTCGACAA | 0.0718 |
| ACGTCTAT | 0.0824 |
| AGGGGCGG | 0.0739 |

| Sequence | binding signal (normalized occupancy) |
| --- | --- |
| GTGGTTTA | 0.0801 |
| GGAACCAC | 0.0736 |
| CGGTTGAG | 0.0679 |
| AGGACCCT | 0.0708 |
| AACATATC | 0.0856 |
| CTTATACA | 0.0827 |
| CCACTAGG | 0.0766 |
| CAACACTG | 0.0764 |
| ATGATGAA | 0.0854 |
| AGATAACC | 0.0791 |
| AGCGTGAA | 0.0854 |
| TCTCCACA | 0.0763 |
| CCACGGCA | 0.0858 |
| TAGTGATA | 0.0798 |
| CGGGGAAG | 0.0714 |
| AACCGTTG | 0.0784 |
| AGCTCAAC | 0.0682 |
| GATTTCCA | 0.0734 |
| CTGCTAAG | 0.0693 |
| ACCTAAGC | 0.0714 |
| AATCTGAA | 0.0757 |
| ACTAAATA | 0.0771 |
| AGGCTCAT | 0.0751 |
| GCCCCCCA | 0.0777 |
| AAGCCATC | 0.0756 |

| Sequence | binding signal (normalized occupancy) |
| --- | --- |
| CGTCGAAG | 0.0714 |
| GTATTGAA | 0.0793 |
| AGTACTTC | 0.0673 |
| ATTGAATC | 0.0785 |
| AACACCTG | 0.0895 |
| CCTCCACC | 0.0784 |
| CTAGCAGC | 0.0696 |
| CTCCGTTA | 0.0722 |
| ATTCGGTG | 0.0777 |
| GCGCAGGA | 0.0691 |
| CTATTTGA | 0.0758 |
| ACCGCCTG | 0.083 |
| CTGACCGC | 0.0743 |
| AAGAGCCG | 0.0673 |
| CCAGCCTA | 0.0697 |
| ACACCGCA | 0.0731 |
| AAGCGACG | 0.0703 |
| ACCAGGTG | 0.0893 |
| ATCCCAAC | 0.0789 |
| TTACTAAA | 0.0728 |
| AGGAATTC | 0.073 |
| AGAACTTC | 0.0693 |
| CCGTAGTA | 0.0713 |
| GGTAAGAC | 0.0711 |
| GGATACAA | 0.0778 |

| Sequence | binding signal (normalized occupancy) |
| --- | --- |
| GATCCAAA | 0.0712 |
| GCTTCACC | 0.0668 |
| GGGCGCAC | 0.0766 |
| GATACGGA | 0.0782 |
| GTTACGTA | 0.0751 |
| TATACCAA | 0.0889 |
| AAGCCTCA | 0.07 |
| GTTCATAA | 0.0811 |
| ATCACATA | 0.0859 |
| GAGACTCC | 0.0714 |
| ATCTCGGA | 0.068 |
| ATTGAGGG | 0.0756 |
| GAATGTCA | 0.0751 |
| GTGCACAC | 0.0921 |
| CAGGGAGA | 0.0751 |
| AAGCTTAA | 0.0702 |
| AGCGTTAG | 0.0756 |
| ATCCAGGC | 0.0783 |
| ACGCCCGC | 0.0813 |
